Whole data set: some 33,000 sequences, median “E-score (-0.5 to 0.5)” near -0.041, cut for the highest 2% near 0.37. This is one part of the list.
biological target: T1, Ecm22 (UniProt Q05958); test: PBM E-score (8-mer binding enrichment) (E-score (-0.5 to 0.5)); higher = stronger / more preferred TF binding; most listed sequences are background and not binding sites; settings: protein concentration: 200 nM; construct: GST-full length
T1 sequence: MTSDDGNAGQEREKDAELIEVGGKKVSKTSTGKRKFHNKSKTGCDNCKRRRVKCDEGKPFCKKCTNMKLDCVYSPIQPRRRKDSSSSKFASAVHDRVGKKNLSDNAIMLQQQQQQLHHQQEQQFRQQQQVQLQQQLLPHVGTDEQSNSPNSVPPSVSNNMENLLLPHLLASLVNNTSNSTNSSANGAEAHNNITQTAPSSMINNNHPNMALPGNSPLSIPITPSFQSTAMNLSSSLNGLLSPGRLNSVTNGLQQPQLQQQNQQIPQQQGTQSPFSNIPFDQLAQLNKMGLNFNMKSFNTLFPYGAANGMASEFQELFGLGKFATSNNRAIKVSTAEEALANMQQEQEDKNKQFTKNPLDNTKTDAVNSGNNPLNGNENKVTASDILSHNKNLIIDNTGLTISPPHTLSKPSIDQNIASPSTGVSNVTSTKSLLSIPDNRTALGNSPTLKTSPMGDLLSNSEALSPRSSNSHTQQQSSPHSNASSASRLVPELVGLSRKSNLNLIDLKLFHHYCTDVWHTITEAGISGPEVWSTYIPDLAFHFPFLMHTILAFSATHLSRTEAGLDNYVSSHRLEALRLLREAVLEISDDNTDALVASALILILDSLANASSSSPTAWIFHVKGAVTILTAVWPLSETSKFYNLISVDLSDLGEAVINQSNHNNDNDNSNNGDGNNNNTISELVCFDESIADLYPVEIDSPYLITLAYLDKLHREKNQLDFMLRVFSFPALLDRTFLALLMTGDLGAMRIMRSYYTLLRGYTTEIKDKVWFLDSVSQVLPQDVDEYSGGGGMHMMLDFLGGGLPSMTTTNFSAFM
Summary of the method: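 Yeast transcription factors, full-length or as DNA-binding domains, were expressed with a GST tag using PURExpress in vitro transcription/translation. At about 100-200 nM they were applied to universal all-10-mer Agilent arrays, double-stranded by primer extension on fresh or once-stripped slides. Fluorescent anti-GST detected bound protein, and masliner normalised the scans. E-scores for ungapped eight-base words, pooled with reverse complements, came from the Universal PBM Analysis Suite.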

Row | Sequence | PBM E-score
1 | CACTCCAA | -0.167
2 | GCTATACA | -0.0645
3 | GTGTCTTA | 0.0249
4 | ACCATAGT | -0.101
5 | GTAAACAA | 0.279
6 | CGCCATCC | -0.13
7 | GTTCAATA | 0.0249
8 | CTTTCTTA | -0.00264
9 | AAGATCCA | -0.089
10 | CTTCCGGA | -0.243
11 | GACTCGGC | 0.071
12 | AGTACGCG | 0.197
13 | GCGTAATA | 0.0727
14 | GAATAGTC | 0.0353
15 | TATCCCCA | -0.243
16 | TGGCGCCA | -0.158
17 | ACTGGGTC | -0.27
18 | ATGGTATA | 0.0457
19 | GGAAAGAA | -0.177
20 | CGGGGTCA | 0.12
21 | TGCGCCAA | -0.162
22 | CCTGGGAC | -0.314
23 | AACAAGTA | -0.12
24 | CCCTCCCA | -0.107
25 | AACCTCTG | -0.134

Row | Sequence | PBM E-score
26 | GCTTACGA | 0.386
27 | CGTCTCAA | -0.0951
28 | AAAGAAAA | 0.0442
29 | ATTCTAAC | -0.0713
30 | GTAATAGA | 0.0326
31 | AGTATACG | 0.433
32 | AATTTACA | -0.0707
33 | CCCCTTAC | 0.0401
34 | CAATAGCA | -0.291
35 | ACTACGCC | -0.224
36 | ATAACATC | 0.0136
37 | CAATTGTA | -0.0178
38 | ATCAGATC | -0.296
39 | ACAACCCC | -0.089
40 | GATGGTAC | 0.179
41 | AGACTACC | -0.0547
42 | GCATAGCC | -0.178
43 | ATCAAACC | -0.0993
44 | CGTGGATA | 0.207
45 | AACGAGTA | 0.433
46 | ACGTTCAG | -0.0561
47 | GCGGTACA | -0.0699
48 | ATCCAGTC | -0.109
49 | AAGCGGTC | -0.0833
50 | AGCACACT | -0.00911

Row | Sequence | PBM E-score
51 | CTGTTCGA | -0.116
52 | GGGTGAAC | -0.056
53 | CTAACGAA | 0.219
54 | ATTCCTCC | -0.135
55 | AAGTGATT | -0.00614
56 | GACTTTTA | -0.222
57 | CTGTTGCC | -0.265
58 | ATAGACCG | 0.0119
59 | CTTCGCTC | 0.275
60 | GAAATCCA | -0.00293
61 | CTGCCGTC | 0.0239
62 | CAGCTGGG | -0.053
63 | GGTTAATA | 0.056
64 | ATACGCGG | 0.248
65 | AGGGACTG | -0.399
66 | GCAAAAGA | -0.103
67 | GTGTTTAA | -0.0622
68 | ACGATTAG | 0.303
69 | ATAGCCCG | -0.0381
70 | CCTGGGGC | -0.105
71 | AACTGCTC | -0.0808
72 | CGCTCTCC | -0.00221
73 | ACATGAAT | -0.0433
74 | CCCCTCCA | -0.144
75 | AGATTCCC | -0.133

Row | Sequence | PBM E-score
76 | CTATAACA | -0.228
77 | ACGATGGG | 0.246
78 | CATTTCAC | -0.102
79 | TAATCAGA | -0.156
80 | CTCCGCAC | -0.158
81 | GCCCTCAC | -0.19
82 | CATCTGCC | -0.145
83 | AACAGATC | 0.0569
84 | ACGCGCCC | 0.0332
85 | GTTGGCTA | -0.174
86 | GGGTTACC | -0.00868
87 | CCAGTCCG | -0.071
88 | CCATTATC | 0.0799
89 | ATAACGGA | 0.0568
90 | AGGCTTAT | -0.281
91 | ATAGCCTA | -0.0945
92 | GCTGCTAA | -0.14
93 | AATACAGG | -0.0199
94 | CGTGCAAC | 0.0729
95 | GTCTTAGA | -0.273
96 | AGAGCAAG | -0.142
97 | ACACGAGT | 0.24
98 | GGCCACCA | -0.161
99 | CGTCCATA | -0.0279
100 | GCGGTATA | -0.0371

Row | Sequence | PBM E-score
101 | CGGAATTA | 0.134
102 | CCCGTTCA | 0.267
103 | ACCTGATA | -0.135
104 | CTATATAC | 0.327
105 | CCAACAGG | -0.173
106 | TTGACAAA | 0.0926
107 | AAAGGGGG | -0.196
108 | GTGGCTAA | -0.0511
109 | GGTACTAA | 0.0853
110 | ACAATCGT | 0.273
111 | CCAAGCGG | -0.131
112 | ACGATCCC | 0.156
113 | GGAAGTTA | 0.0819
114 | AGGCATCC | -0.227
115 | ATTTCCCA | 0.00914
116 | ATAACACG | 0.092
117 | GGTTCATA | 0.0139
118 | CCCCCCGG | -0.333
119 | AATCAAAC | 0.163
120 | GTTGCTAA | 0.222
121 | CGATCTAC | 0.184
122 | CCCTGTGA | -0.102
123 | CGAACAGC | 0.0557
124 | CCTGTTAC | -0.095
125 | CTGTGAAG | -0.059

Row | Sequence | PBM E-score
126 | ATTGCAAG | -0.0295
127 | AGATCACA | -0.0185
128 | CCCGAAAG | 0.0186
129 | CATGTGGC | -0.127
130 | AGGCAGAA | -0.0276
131 | AAGGCTAT | -0.108
132 | AGAGATCC | -0.087
133 | CCACTTAC | 0.174
134 | CTAGCCGC | -0.102
135 | ACTACAAT | 0.00011
136 | GGCGCGCC | 0.155
137 | CTGCCAAA | -0.042
138 | CGATTCTA | -0.0273
139 | AGTCCACT | -0.231
140 | AAGAAGGT | -0.0463
141 | AAAAGTCC | -0.0944
142 | CTACCGCC | -0.259
143 | AAGTCATC | -0.0342
144 | AAGAACGG | 0.243
145 | AGAAGGCC | -0.00348
146 | AGACCAAG | -0.115
147 | GAATGCAA | 0.0583
148 | ACCGGTAC | 0.0672
149 | TGGAGGAA | -0.162
150 | CGATAAGC | 0.111

Row | Sequence | PBM E-score
151 | AGATAGGG | -0.127
152 | GAAAATGA | -0.0403
153 | AATAATGA | -0.0324
154 | ATGCGAAT | 0.264
155 | CCTTAGCC | -0.23
156 | TCTAAAGA | -0.152
157 | AACGGATA | 0.258
158 | CCAGTCAA | -0.166
159 | ACTCCGGA | 0.181
160 | AACCTTAT | -0.346
161 | ACGGGCAC | 0.0891
162 | CGCGAGGC | 0.272
163 | AATAGATC | 0.0136
164 | GTGACCTA | -0.138
165 | CGTGGTAG | -0.145
166 | AAATCCGA | 0.177
167 | CGCTGATC | 0.0573
168 | CCTTGTAC | 0.0602
169 | CCCCATAC | -0.0766
170 | AGTTTTGG | -0.205
171 | AGCTCAGG | -0.211
172 | GGAACCAC | -0.116

From the supplement of paper PMC3334620
